The whole screen tested about 270,000 compounds, of which about 5,800 (2.1%) were called active. Inconclusive means that the source gave no clear call. Such entries were picked first, then a sample of the others. Calls come from the whole dose curve; as a rule, active = well fitted inhibition curve with a large enough effect; inconclusive = small, poorly fitted or top-dose-only effect; inactive = flat fitted curve, though single readings scatter. Where the call is inconclusive, the potency comes from a doubtful curve fit.
Biological target: Microtubule-associated protein tau (Homo sapiens) (UniProt P10636)
Sequence of UniProt P10636 (P10636 whole entry, looked up): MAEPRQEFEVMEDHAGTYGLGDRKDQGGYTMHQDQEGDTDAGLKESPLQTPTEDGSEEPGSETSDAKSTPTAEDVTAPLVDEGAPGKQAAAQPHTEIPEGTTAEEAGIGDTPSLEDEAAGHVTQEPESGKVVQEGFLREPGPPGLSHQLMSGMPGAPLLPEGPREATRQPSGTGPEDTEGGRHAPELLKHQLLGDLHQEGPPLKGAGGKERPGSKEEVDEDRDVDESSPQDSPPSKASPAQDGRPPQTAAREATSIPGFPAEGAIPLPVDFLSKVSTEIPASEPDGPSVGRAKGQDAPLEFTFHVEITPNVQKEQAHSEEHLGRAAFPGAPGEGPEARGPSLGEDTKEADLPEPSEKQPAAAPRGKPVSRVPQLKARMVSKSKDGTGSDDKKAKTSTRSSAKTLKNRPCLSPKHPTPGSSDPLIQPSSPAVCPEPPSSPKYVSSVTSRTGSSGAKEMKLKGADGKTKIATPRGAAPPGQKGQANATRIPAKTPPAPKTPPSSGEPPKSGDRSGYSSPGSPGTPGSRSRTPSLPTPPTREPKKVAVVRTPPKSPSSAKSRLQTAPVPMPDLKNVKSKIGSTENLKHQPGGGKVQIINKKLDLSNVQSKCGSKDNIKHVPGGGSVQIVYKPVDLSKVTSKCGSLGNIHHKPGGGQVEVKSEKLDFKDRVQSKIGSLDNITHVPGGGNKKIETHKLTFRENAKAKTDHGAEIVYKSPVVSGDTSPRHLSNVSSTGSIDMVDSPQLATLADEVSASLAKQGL
Assay: qHTS for Inhibitors of Tau Fibril Formation, Thioflavin T Binding; note: nearly all actives have a fitted effect of over 55% in size
Details: recombinant tau K18 P301L, heparin-induced fibrillization, ThT fluorescence; series mostly up to 57.4 µM; activity, negative = inhibition: at the top concentration
Procedure, shortened: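 Fibril formation assay: tau K18 P301L at 15 uM with trace Alexa 594 label, heparin inducer 20 uM, pH 7 sodium acetate buffer, 37 C for 6 hr; endpoint ThT signal.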
% is set by controls: 0 for no effect and ±100 for the full control effect; potency is the fitted concentration of half-maximal effect; tags give direction and shape of the fitted curve.

Which Potency does the source give for COCc1cc(C)nc(N/N=C/c2ccc(-c3ccc(Cl)cc3[N+](=O)[O-])o2)c1C#N here?
The Potency was inconclusive: 15.8 µM [inhibitor, partial curve].

How did the Potency turn out when NNC(=O)c1sc(-c2ccccc2)cc1N was run?
Its Potency is inconclusive: 22.4 µM [inhibitor, single point].

For CC(C(=O)O)N1C(=O)C2C3CC(C2C1=O)C1C(c2ccccc2)c2sc(=O)[nH]c2SC31 (stereo unspecified), which “activity, negative = inhibition” value is on record?
Its value is inactive: -3.37%.

Which Potency does the source give for Cc1ccc(CNC(=O)CCc2c(C)nc3c4c(C)cc(C)nc4nn3c2C)cc1 here?
Its Potency is inconclusive: 10 µM [inhibitor, partial curve].

COc1ccc(OC)c(Nc2nc(-c3sc(C)nc3C)cs2)c1 was tested. Which Potency did it give?
The Potency was active: 14.1 µM.

For O=C(COc1cccnc1[N+](=O)[O-])N1CCc2ccccc21, which Potency is on record?
The Potency was inconclusive: 28.2 µM [inhibitor, single point].

How did the Potency turn out when Cc1ccc(-c2nnc(SCC#CCOC(=O)c3cccs3)o2)cc1 was run?
Its Potency is inconclusive: 6.31 µM [inhibitor, partial curve].

COc1ccc(/C=C/C(=O)c2ccncc2)c2ccccc12 was tested. Which Potency did it give?
Its Potency is active: 15.8 µM.

For CCc1c(C(=O)NCc2cnn(C)c2)csc1C, which Potency is on record?
Its Potency is inconclusive: 0.0631 µM [activator, full curve, poor fit].

With CN(C(N)=S)c1ccccc1 as the molecule, how does the “activity, negative = inhibition” value read?
Its value is inactive: -3.91%.

For CCNc1nc(-c2ccc(Cl)cc2)cs1, which Potency is on record?
Its Potency is inconclusive: 7.94 µM [inhibitor, partial curve].

For Cc1ccc(C)c(NC(=O)c2nc(-c3ccccc3)n(-c3ccccc3)n2)c1, which Potency is on record?
Its Potency is inconclusive: 11.2 µM [inhibitor, partial curve].

With O=C1N=C(N2CCOCC2)S/C1=C/c1ccc(-c2ccccc2Cl)o1 as the molecule, how does the “activity, negative = inhibition” value read?
The value was inactive: -16.3%.

With CC(=O)Nc1ccc(C(=O)Nc2nc(-c3ccccn3)cs2)cc1 as the molecule, how does the Potency read?
Its Potency is inconclusive: 1.41 µM [inhibitor, full curve, poor fit].

For Cc1ccc(C)n1-c1nnc(N2CCCC(C(=O)NCc3cccc(Br)c3)C2)s1 (stereo unspecified), which Potency is on record?
The Potency was inconclusive: 22.4 µM [inhibitor, single point].

For COc1cc(CNc2ccc3[nH]c(=O)[nH]c3c2)cc(Br)c1OCc1ccccc1F, which Potency is on record?
The Potency was inconclusive: 0.794 µM [inhibitor, full curve].

How did the “activity, negative = inhibition” value turn out when COc1cc(/C=N/NC(=O)Cc2ccc(Br)cc2)cc(OC)c1O was run?
Its value is inactive: -6.44%.

Nc1cccc(C(=O)Nc2ccc3nc(-c4cccnc4)[nH]c3c2)c1 was tested. Which Potency did it give?
The Potency was inconclusive: 17.8 µM [inhibitor, partial curve].

O=C(CCc1ccccc1)NN1C(=O)C2C3C=CC(O3)C2C1=O (stereo unspecified) was tested. Which “activity, negative = inhibition” value did it give?
The value was inactive: 12.7%.

For COc1ccc2oc(-c3ccc(O)cc3)cc(=O)c2c1, which Potency is on record?
Its Potency is inconclusive: 3.55 µM [inhibitor, full curve].

Which Potency does the source give for O=[N+]([O-])c1ccc(O)c(/C=N\N=C2c3ccccc3-c3ccccc32)c1 here?
Its Potency is inconclusive: 8.91 µM [inhibitor, partial curve].

Cn1c2ccccc2c2cc(C(=O)N3CCOCC3)sc21 was tested. Which Potency did it give?
Its Potency is inconclusive: 22.4 µM [inhibitor, partial curve].

Which Potency does the source give for CCN1CCN(c2cc(C)c3cc(NC(=O)/C=C/c4ccc(C)cc4)ccc3n2)CC1 here?
The Potency was active: 4.47 µM.

For CN(C)S(=O)(=O)c1ccc(/C(O)=C2/C(=O)C(=O)N(Cc3cccnc3)C2c2cccs2)cc1 (stereo unspecified), which “activity, negative = inhibition” value is on record?
Its value is inactive: -17.6%.

O=C(CCC1COc2ccccc2O1)NCc1ccco1 (stereo unspecified) was tested. Which Potency did it give?
The Potency was inconclusive: 25.1 µM [inhibitor, single point].

With COc1ccc(N2CCN(C(=O)CSc3nnc(-c4cccnc4)n3-c3ccc(F)cc3)CC2)cc1 as the molecule, how does the Potency read?
The Potency was inconclusive: 25.1 µM [inhibitor, partial curve, poor fit].

With Cc1ccc(NC(CC(=O)c2ccccc2)C(=O)O)cc1Cl (stereo unspecified) as the molecule, how does the Potency read?
Its Potency is inconclusive: 17.8 µM [inhibitor, partial curve].

O=C(c1cnc2c(c1)COc1ccccc1-2)c1ccccc1O was tested. Which Potency did it give?
The Potency was inconclusive: 12.6 µM [inhibitor, partial curve].

Which Potency does the source give for N/C(Cn1cncn1)=N\NC(=O)C(=O)Nc1ccc(Cl)cc1Cl here?
Its Potency is inconclusive: 39.8 µM [inhibitor, single point].

With COC(=O)c1ccc(NC(=O)N2CCN(c3nnc(C)c4c(C)n(-c5ccccc5)nc34)CC2)cc1 as the molecule, how does the “activity, negative = inhibition” value read?
Its value is inactive: -17%.

Which Potency does the source give for COc1ccc(S(=O)(=O)N2CCN(c3ccccc3)CC2)cc1-c1noc(C)n1 here?
The Potency was inconclusive: 12.6 µM [inhibitor, partial curve].

OCC1OC(c2ccc3c(c2)OCO3)C=CC1Oc1cc(Cl)cc(Cl)c1 (stereo unspecified) was tested. Which activity, negative = inhibition did it give?
Its activity, negative = inhibition is inactive: -21.6% [at 11.5 µM].

How did the Potency turn out when CC(=O)c1ccc2c(c1)N(C)c1ccccc1S2 was run?
Its Potency is active: 10 µM.

With COC(=O)c1ccc2nc(NC(=O)C(C)C)sc2c1 as the molecule, how does the “activity, negative = inhibition” value read?
Its value is inactive: -5.67%.

With O=C(c1ccccc1)N1C(=O)C(c2ccccc2)Oc2ccccc21 (stereo unspecified) as the molecule, how does the “activity, negative = inhibition” value read?
The value was inactive: -16%.

Cc1cc(Oc2ccccc2)nc(-c2ccccc2)n1 was tested. Which Potency did it give?
The Potency was inconclusive: 12.6 µM [inhibitor, partial curve].

For NC(=O)CSc1oc(-c2cccs2)nc1S(=O)(=O)c1ccc(Br)cc1, which Potency is on record?
Its Potency is inconclusive: 28.2 µM [inhibitor, partial curve].

Which Potency does the source give for CCOC(=O)c1sc(=S)n(-c2ccc(C)cc2)c1N here?
The Potency was inconclusive: 12.6 µM [inhibitor, partial curve].

For Cc1cccc2nc(CSc3nc4ccccc4[nH]3)cn12, which Potency is on record?
The Potency was inconclusive: 11.2 µM [inhibitor, partial curve].

How did the “activity, negative = inhibition” value turn out when O=C(N/N=C/c1ccc2c(c1)OCO2)c1ccc(Cn2cc([N+](=O)[O-])cn2)o1 was run?
Its value is inactive: -0.161%.

For CC1CCN(C(=O)c2ccc(NC(=O)C3CCCO3)cc2)CC1 (stereo unspecified), which “activity, negative = inhibition” value is on record?
The value was inactive: -9.1%.

Which Potency does the source give for COCCCn1c(SCC(=O)n2c(C)c(C)c3ccccc32)nnc1-c1ccoc1C here?
The Potency was inconclusive: 39.8 µM [inhibitor, partial curve].

Which Potency does the source give for NC(=O)N=Nc1c(O)[nH]c2c(Br)cc(Br)cc12 here?
Its Potency is inconclusive: 10 µM [inhibitor, partial curve].

With CCSc1nc2ccccc2c(=O)n1CCc1ccc(OC)c(OC)c1 as the molecule, how does the Potency read?
The Potency was inconclusive: 10 µM [inhibitor, partial curve].

How did the “activity, negative = inhibition” value turn out when Cc1ccc(CNC(=O)C(=O)NCC(c2ccco2)S(=O)(=O)c2ccc(C)cc2)cc1 (stereo unspecified) was run?
The value was inactive: 7.73%.

COC(=O)c1ccc(C(=O)OC)c(NC(=O)CCc2ccc(C)o2)c1 was tested. Which Potency did it give?
Its Potency is inconclusive: 22.4 µM [inhibitor, single point].

COC1CCN(C(=O)CC2C(=O)NCCN2CC(C)(C)C)CC1 (stereo unspecified) was tested. Which Potency did it give?
Its Potency is inconclusive: 39.8 µM [inhibitor, partial curve, poor fit].

For O=C(/C=C/c1ccccc1)Nc1ccc2c(c1)C(=O)NC2=O, which Potency is on record?
Its Potency is inconclusive: 7.08 µM [inhibitor, full curve].

With Fc1ccc(-n2nnc(-c3cnc4ccccc4c3)n2)cc1 as the molecule, how does the Potency read?
Its Potency is inconclusive: 25.1 µM [inhibitor, single point].

Which “activity, negative = inhibition” value does the source give for O=C(NNC1CC(=O)N(c2ccc3c(c2)OCCO3)C1=O)c1ccccc1 (stereo unspecified) here?
The value was inactive: -8.12%.

How did the Potency turn out when N#Cc1cc2c(N)c(C(=O)Nc3ccccc3)sc2nc1N was run?
The Potency was active: 7.94 µM.

How did the “activity, negative = inhibition” value turn out when O=C(Nc1ccc2c(c1)OCO2)Nc1ccccn1 was run?
Its value is inactive: -3.63%.

For Cc1cc(-c2ccccc2)c(C#N)c(=S)[nH]1, which “activity, negative = inhibition” value is on record?
Its value is inactive: -7.87%.

How did the Potency turn out when O=C(/C=C/Nc1ccc([N+](=O)[O-])cc1)c1ccc(Br)cc1 was run?
The Potency was inconclusive: 1.41 µM [inhibitor, full curve].

Which Potency does the source give for CC1CCCC(C)N1/N=C/c1cc(Br)cc(Br)c1O (stereo unspecified) here?
The Potency was inconclusive: 25.1 µM [inhibitor, partial curve].

Which Potency does the source give for COc1ccc(OCC(=O)N/N=C2\CCCc3ccccc32)cc1 here?
The Potency was inconclusive: 8.91 µM [inhibitor, partial curve].

With Cc1cccc(CNc2ccc(C(CC(N)=O)NC(=O)c3ccccc3)cc2[N+](=O)[O-])c1 (stereo unspecified) as the molecule, how does the Potency read?
The Potency was inconclusive: 17.8 µM [inhibitor, partial curve].

With CCCCCCCCCCCCC/C=C\[C@@H](O)[C@@H](N)CO as the molecule, how does the Potency read?
Its Potency is inconclusive: 28.2 µM [inhibitor, single point].

For CN1/C(=C\C=C(/C#N)C(=O)Nc2ccccc2F)C(C)(C)c2ccccc21, which Potency is on record?
Its Potency is inconclusive: 3.98 µM [activator, full curve, poor fit].

Which Potency does the source give for C=C(C)C1CC=C(C)/C(=N/NC(=O)c2ccc(NC(=O)CCC)cc2)C1 (stereo unspecified) here?
Its Potency is inconclusive: 28.2 µM [inhibitor, single point].

With COc1ccc(-c2nc(-c3ccccc3)c(-c3cc([N+](=O)[O-])ccc3C)[nH]2)cc1OC as the molecule, how does the Potency read?
The Potency was inconclusive: 20 µM [inhibitor, partial curve].

For COc1ccc(Cc2nc3ccc(C(=O)NCCc4ccc(OC)c(OC)c4)cc3o2)cc1, which Potency is on record?
The Potency was inconclusive: 28.2 µM [inhibitor, single point].

With CCn1ncc(NC(=S)Nc2ccc(OC)c(OC)c2)c1C(N)=O as the molecule, how does the Potency read?
The Potency was inconclusive: 31.6 µM [inhibitor, single point].

Which Potency does the source give for O=C(NC(=S)Nc1cc(Cl)ccc1O)c1cccc(Br)c1 here?
Its Potency is inconclusive: 10 µM [inhibitor, partial curve].

Which “activity, negative = inhibition” value does the source give for CCOc1cc(/C=C2\SC(=S)N(N3CCOCC3)C2=O)ccc1O here?
Its value is inactive: 0.649%.

For COc1cccc(/C(O)=C2/C(=O)C(=O)N(CCN(C)C)C2c2ccccn2)c1 (stereo unspecified), which Potency is on record?
The Potency was inconclusive: 28.2 µM [inhibitor, partial curve].

For CC(C)(C)c1cn(-c2ccccc2)c(=S)[nH]1, which “activity, negative = inhibition” value is on record?
The value was inactive: 4.7%.

With N/C(CN1CCCC1=O)=N\O as the molecule, how does the “activity, negative = inhibition” value read?
The value was inactive: -3.22%.

Which Potency does the source give for Cc1oc(-c2ccc(Cl)cc2)nc1CN1CCCC(C(=O)NCCc2ccccc2)C1 (stereo unspecified) here?
The Potency was inconclusive: 22.4 µM [inhibitor, single point].

Which Potency does the source give for Cc1ccc(-c2nc(P(=O)(c3ccccc3)c3ccccc3)c(N3CCOCC3)o2)cc1 here?
The Potency was inconclusive: 28.2 µM [inhibitor, single point].

Which “activity, negative = inhibition” value does the source give for NS(=O)(=O)c1ccc(CCn2c(=S)[nH]c3ccc(F)cc3c2=O)cc1 here?
Its value is inactive: 0.455%.

Reference: PubChem BioAssay AID1460 (National Center for Advancing Translational Sciences (NCATS), 2008)
